Results on 93 compounds are retold here after paper PMC4336329 (PLoS ONE, 2015).

SMILES strings stand for the structures. About 2,200 (0.71%) of roughly 310,000 compounds showed an effect of 50% or more. The effect is printed as a negative number. The list shows a part of the results.

In the assay the target is human ether-à-go-go-related gene (hERG) potassium channel (human, UniProt Q12809). Nature of the assay: primary screen, population patch clamp on CHO cells stably expressing hERG.
Sequence of human ether-à-go-go-related gene (hERG) potassium channel (Q12809 whole entry, looked up): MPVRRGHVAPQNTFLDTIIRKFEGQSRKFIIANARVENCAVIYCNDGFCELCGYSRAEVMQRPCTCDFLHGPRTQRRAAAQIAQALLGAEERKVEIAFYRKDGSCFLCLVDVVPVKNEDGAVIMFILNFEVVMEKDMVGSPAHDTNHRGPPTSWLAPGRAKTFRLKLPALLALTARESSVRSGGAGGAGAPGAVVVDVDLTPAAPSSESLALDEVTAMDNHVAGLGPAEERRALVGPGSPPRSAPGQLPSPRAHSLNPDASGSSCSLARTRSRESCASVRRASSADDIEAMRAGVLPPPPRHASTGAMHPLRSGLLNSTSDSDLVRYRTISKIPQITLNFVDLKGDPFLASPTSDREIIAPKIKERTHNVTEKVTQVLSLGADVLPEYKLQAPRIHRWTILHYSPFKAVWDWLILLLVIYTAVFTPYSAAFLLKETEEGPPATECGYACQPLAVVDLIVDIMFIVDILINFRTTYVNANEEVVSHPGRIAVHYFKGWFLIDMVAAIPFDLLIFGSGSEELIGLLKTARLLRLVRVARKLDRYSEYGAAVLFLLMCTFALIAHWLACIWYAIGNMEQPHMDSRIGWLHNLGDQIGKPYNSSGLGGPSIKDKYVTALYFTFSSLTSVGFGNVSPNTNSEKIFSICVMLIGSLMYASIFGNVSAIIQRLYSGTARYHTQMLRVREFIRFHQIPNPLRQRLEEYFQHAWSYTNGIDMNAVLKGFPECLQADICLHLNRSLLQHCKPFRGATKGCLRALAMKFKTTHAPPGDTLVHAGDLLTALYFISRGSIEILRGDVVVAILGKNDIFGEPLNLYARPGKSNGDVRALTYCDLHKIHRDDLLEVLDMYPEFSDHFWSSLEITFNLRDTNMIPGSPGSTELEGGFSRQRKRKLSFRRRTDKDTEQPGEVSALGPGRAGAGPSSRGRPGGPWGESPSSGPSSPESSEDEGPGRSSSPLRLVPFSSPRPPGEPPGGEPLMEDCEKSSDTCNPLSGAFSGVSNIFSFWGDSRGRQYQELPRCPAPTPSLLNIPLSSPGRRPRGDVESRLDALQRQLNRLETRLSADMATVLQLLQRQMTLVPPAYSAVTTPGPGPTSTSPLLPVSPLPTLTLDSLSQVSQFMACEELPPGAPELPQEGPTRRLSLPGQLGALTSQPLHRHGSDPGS
With `CCOc1ccc(C(=O)N2CCN(Cc3ccccc3)CC2)cc1`, the “hERG current change (%, negative = inhibition) at 1uM” value is -60.3%.

Turning to `O=C(O)COc1ccc(Br)cc1/C=N/O`, the “hERG current change (%, negative = inhibition) at 1uM” value was 10.9%. On to `CC(C)=C(NC(=O)c1ccccc1)C(=O)NCCc1nc2ccccc2[nH]1`, for which the “hERG current change (%, negative = inhibition) at 1uM” value is recorded as 19.8%.

As for `COc1ccc(CCN(Cc2cccs2)S(=O)(=O)c2ccc(C(=O)O)cc2)cc1OC`, the “hERG current change (%, negative = inhibition) at 1uM” value was found to be 21.6%. Under `CCOC(=O)C1(Cc2ccccc2C)CCCN(C(=O)c2ccc(CSC)o2)C1` (stereo not drawn) stands -0.38%; under `CCCc1cc(=O)[nH]c2nnc(SCC(=O)Nc3ccc4c(c3)OCCO4)n12`, 11.9%; under `Cl.c1coc(CNc2ncnc3ccccc23)c1`, 13.2%. In the case of `CCN(CC)c1ccc(C(=O)N/N=C(\C)c2ccc(O)cc2)cc1` it was 16.5%; in that of `COC(=O)C[C@H]1c2cc(F)ccc2S(=O)(=O)N1c1ccccc1`, 12.2%; in that of `Cc1c(C)c2ccc(OC(C)C(=O)NCc3ccccn3)cc2oc1=O` (stereo not drawn), 11.2%. Regarding `O=C1N=C(N2CCCCC2)S/C1=C/C1=Cc2ccccc2OC1`, the “hERG current change (%, negative = inhibition) at 1uM” value is 4.65%. Regarding `CCSc1ccc(-c2ccco2)nn1`, the “hERG current change (%, negative = inhibition) at 1uM” value came out at 8.6%. In the case of `O=P(O)(CP(=O)(c1ccccc1)c1ccccc1)c1ccccc1O` it was 16.4%; in that of `O=C(CCC1CCCC1)Nc1ccc(Br)cn1`, 10.5%; in that of `COc1ccc2c(c1)CCC/C2=N\NC(=O)c1ccoc1C`, 7.69%. In the case of `O=C(NCC(c1ccco1)N1CCN(c2ccc(F)cc2)CC1)C(=O)NC1CC1` (stereo not drawn) it was -2.57%; in that of `Cc1cc(C)nc(NC(=O)CSc2nn(C)c(=S)s2)n1`, 7.69%; in that of `O=C(CSc1nc(O)cc(=O)[nH]1)N1CCOCC1`, 9.24%. In the case of `CCc1ccc(NC(=O)CSc2nc(CSc3ccc(C)cc3)cc(=O)[nH]2)cc1` it was 8.53%; in that of `C=CCC1(CN2CCCCCC2=O)C(=O)NC(=O)NC1=O`, 13.8%; in that of `CCCCN(C(=O)c1ccc([N+](=O)[O-])o1)c1c(N)n(CCCC)c(=O)[nH]c1=O`, -3.98%. On to `NC(=O)c1ccc(NC(=O)COC(=O)c2c3c(nc4ccccc24)/C(=C\c2cccs2)CCC3)cc1`, for which the “hERG current change (%, negative = inhibition) at 1uM” value is on record as 2.5%. Consider `CN(C)CC1(c2ccccc2)CCCC1.Cl`, for which the “hERG current change (%, negative = inhibition) at 1uM” value was -0.534%.

Take `Cc1ccc(SCCC(=O)NCc2ccco2)cc1`: the “hERG current change (%, negative = inhibition) at 1uM” value worked out at 10.5%. Consider `COc1ccccc1CNC(=O)C(C)n1nc(C)c2c(C)n(-c3ccccc3)nc2c1=O` (stereo not drawn), for which the “hERG current change (%, negative = inhibition) at 1uM” value is on record as 12.5%.

Turning to `CCN(CC)c1ccc(C=C2C(=O)OC3(CCCCC3)OC2=O)cc1`, the “hERG current change (%, negative = inhibition) at 1uM” value was determined as 14.4%.

With `N#Cc1cc(O)c(-n2nnc3ccccc32)cc1C#N`, the “hERG current change (%, negative = inhibition) at 1uM” value came out at 8.84%. In the case of `Cc1oc(-c2cccs2)nc1CS(=O)CC(=O)NC1CCCCCC1` (stereo not drawn) it was 15.1%; in that of `CCCn1c(N)c(C(=O)COC(=O)c2cccc(S(=O)(=O)N3CCOCC3)c2)c(=O)[nH]c1=O`, 5.86%. With `Cc1occc1C(=O)NCc1ccc(C(=O)O)o1`, the “hERG current change (%, negative = inhibition) at 1uM” value is reported as -0.366%. As for `Cc1cc(C)cc(NS(=O)(=O)c2ccc3[nH]c(=O)ccc3c2)c1`, the “hERG current change (%, negative = inhibition) at 1uM” value turned out to be 11.7%. Under `Cc1ccc(C(=O)NNC(=O)c2n[nH]c(=O)c3ccccc23)cc1C` stands 5.71%. In the case of `COC(=O)CCCNC(=O)CC1C(=O)NCCN1Cc1ccoc1` (stereo not drawn) it was 16.6%; in that of `Cn1cccc1/C=C(\C#N)c1ccccc1`, 6.62%; in that of `CCO.Cc1ccc(NC(=O)c2sc3nc(N)c(C#N)cc3c2N)cc1`, -6.63%. In the case of `O=C(Nc1ccccc1C(F)(F)F)Nc1cccc2ccccc12` it was 9.35%.

As to `O=C(COc1nncc2ccccc12)NCCC1=CCCCC1`, the “hERG current change (%, negative = inhibition) at 1uM” value is 9.4%. Under `COc1ccc(C(C#N)c2ccc(Cl)nn2)cc1` (stereo not drawn) stands 8.62%. Under `O=C1NCC(O)=C1C=NC12CC3CC(CC(C3)C1)C2` [4246017] stands 13.1%; under `Cc1ccc(Nc2c(F)c(F)c(F)c(F)c2C(=O)O)cc1`, 7.23%. In the case of `Cc1cc(N2CCN(C(=O)c3ccco3)CC2)n2ncnc2n1` it was -7.2%; in that of `COc1cc(C(=O)NNC(=O)C2CCC2)cc(OC)c1OC`, 3.15%. `CCOC(=O)c1cn(CC(=O)Nc2ccccc2C(=O)OCC)nn1`: the “hERG current change (%, negative = inhibition) at 1uM” value is given as -2.67%. For `CCO[C@@H]1OC(C(N)=O)=C[C@H](C(C)(C)C)[C@H]1CCCO`, the “hERG current change (%, negative = inhibition) at 1uM” value was 20%. On to `COC(=O)N/N=C(\C)c1cccc(C(F)(F)F)c1`, for which the “hERG current change (%, negative = inhibition) at 1uM” value came to 7.29%. Consider `Br.COC(=O)C1=CCCN(C)C1`, for which the “hERG current change (%, negative = inhibition) at 1uM” value is recorded as 3.9%. For `Cc1ccc(-c2c(C)sc(NC(=O)C3C4CCC(O4)C3C(=O)O)c2C(=O)OC(C)C)cc1` (stereo not drawn), the “hERG current change (%, negative = inhibition) at 1uM” value is reported as 6.73%. In the case of `O=C(NCCc1ccccc1)C1(S(=O)(=O)c2ccc(Cl)cc2)CC1` it was 9.37%; in that of `O=c1cc(N2CCN(c3ccc(F)cc3)CC2)[nH]c(=O)n1C1CCCCC1`, 8.74%. Under `CCc1ccc2oc(C(=O)Nc3nonc3CC)c(C)c2c1` stands 13.4%. In the case of `CC(=O)Nc1c(-c2ccccc2)nc2ccc(Cl)cn12` it was 7.89%; in that of `O=C(CSc1nnc2ccccn12)Nc1ncc(Cl)cc1Cl`, -0.579%; in that of `COc1ccc2oc(C(=O)OCC(=O)N3CCCCC3)c(C)c2c1`, 4.73%. On to `CCNC(=S)N(CCN(CC)CC)Cc1cc2cc3c(cc2[nH]c1=O)OCO3`, for which the “hERG current change (%, negative = inhibition) at 1uM” value came to 11.2%. For `CC(COc1cccc2ccccc12)CN1CCN(C)CC1` (stereo not drawn), the “hERG current change (%, negative = inhibition) at 1uM” value was -5.17%. In the case of `c1ccc(-c2nnc(NC3=NCCC3)o2)cc1`, the “hERG current change (%, negative = inhibition) at 1uM” value amounted to 17.1%. In the case of `CCCCn1c(O)c(/C=N/N2CCOCC2)c(=O)[nH]c1=S` it was 12.9%; in that of `O=C(NCCOc1ccccc1)C1CCC(=O)N(Cc2ccc(Cl)cc2)C1` (stereo not drawn), -0.988%; in that of `Cc1ccc(C(=O)Oc2oc(-c3ccccc3)nc2C=Nc2ccc(N(C)C)cc2)cc1`, 13.4%. For the compound `CC1C(=O)C(C)(C)C(=O)OC1c1ccccc1` (stereo not drawn), the “hERG current change (%, negative = inhibition) at 1uM” value is given as 10.4%. Take `O=S(=O)(c1cc(F)ccc1F)N1CCN(c2ncccn2)CC1`: the “hERG current change (%, negative = inhibition) at 1uM” value is 3.1%. In the case of `C=CCNC(=O)C(=O)NCC1CCCN1CC` (stereo not drawn) it was 2.83%; in that of `CC(=O)c1cnn(-c2ccccc2)c1C`, 17.7%. In the case of `COc1cc(C)c(NC(=O)C(=S)N2CCCC2)cc1C` it was 11.5%; in that of `Cc1c(NC(=O)c2cc(-c3ccccc3O)on2)c(=O)n(-c2ccccc2)n1C`, 6.09%; in that of `Fc1ccc(-c2nnc(CSc3nnc(-c4cccs4)o3)o2)cc1`, -3.91%.

As for `COc1ccc(OC)c(/C=N/NC(=O)c2ccc(=O)[nH]n2)c1`, the “hERG current change (%, negative = inhibition) at 1uM” value worked out at 9.61%. In the case of `CNC(=S)NNC(=O)c1sccc1OCc1ccc(Cl)cc1Cl`, the “hERG current change (%, negative = inhibition) at 1uM” value is 6.61%. For `O=C(C(Cc1ccccc1)N1C(=O)C2C3CCC(C3)C2C1=O)N1CCCCC1` (stereo not drawn), the “hERG current change (%, negative = inhibition) at 1uM” value was 12.5%. With `Fc1ccc(N2CCN(c3nc(-c4ccco4)cc(C(F)(F)F)n3)CC2)cc1`, the “hERG current change (%, negative = inhibition) at 1uM” value is reported as 9.47%. Regarding `O=C(c1ccccc1)N1CCN(c2ccccc2F)CC1`, the “hERG current change (%, negative = inhibition) at 1uM” value is reported as 9.77%. In the case of `CC(CN1CCCCC1)OC(=O)c1cc2ccccc2o1.Cl` (stereo not drawn), the “hERG current change (%, negative = inhibition) at 1uM” value turned out to be 9.02%. In the case of `CC(=O)c1cccc(NC(=O)C2CCCC2)c1` it was 2.48%; in that of `O=C1[C@H]2[C@@H](c3ccc(Cl)cc3)N3C(=O)N(c4cccc(Br)c4)C(=O)[C@@]3(Cc3ccc(Cl)cc3)[C@H]2C(=O)N1C1CCCCC1`, 0.754%. For `C/C(=N\NC(=O)c1sccc1C)c1ccncc1`, the “hERG current change (%, negative = inhibition) at 1uM” value is listed as 11.7%. On to `Cc1cccc(OCCCn2c(=O)sc3ccccc32)c1`, for which the “hERG current change (%, negative = inhibition) at 1uM” value was determined as 9.12%.

With `CCOC(=O)c1cc(NC(=O)Nc2ccccc2OC)c(C)nc1C`, the “hERG current change (%, negative = inhibition) at 1uM” value is 1.84%. Under `Cc1ccc(CNC(=O)C2CCCN2C(=O)NCc2ccccc2)cc1` (stereo not drawn) stands 10.4%; under `COc1cc(CCC(=O)Nc2sccc2C#N)cc(OC)c1OC`, 12.4%. Under `CCOc1cc(C2Nc3ccccc3C(=O)N2c2ccccc2)c(Br)cc1OCC(=O)O` (stereo not drawn) stands -6.86%; under `O=C(NCc1cccs1)C(=O)c1cn(CC(=O)N2CCCC2)c2ccccc12`, 7.67%.

As for `O=C(c1cccc([N+](=O)[O-])c1)N1CCCN(C(=O)c2cccc([N+](=O)[O-])c2)CC1`, the “hERG current change (%, negative = inhibition) at 1uM” value is -23.2%. Take `O=C(COC(=O)c1ccc(Br)o1)Nc1ccc(S(=O)(=O)N2CCCC2)cc1`: the “hERG current change (%, negative = inhibition) at 1uM” value is listed as -3.67%. On to `Cc1ccc(N(CC(=O)NC(C)(C)C)C(=O)CNC(=O)c2cccs2)cc1C`, for which the “hERG current change (%, negative = inhibition) at 1uM” value came out at 13.9%. As to `O=C(/C=C/c1ccc2c(c1)OCO2)NCC1CCCO1` (stereo not drawn), the “hERG current change (%, negative = inhibition) at 1uM” value is on record as 9.86%. In the case of `O=C(CSCc1ccc(Br)cc1)NC1CC1` it was 12.4%; in that of `CCC(C)NC(=O)c1cc2c(=O)n3ccccc3nc2s1` (stereo not drawn), 5.04%; in that of `O=C(c1ccc(NC2=NC3CS(=O)(=O)CC3S2)cc1)N(CCO)Cc1ccccc1` (stereo not drawn), 26.5%. Under `O=C(COc1ccc([N+](=O)[O-])cc1)Nc1cc(C(=O)O)cc(C(=O)O)c1` stands 10.6%; under `Cc1ccc2c(COC(=O)C34CC5CC(CC(C5)C3)C4)cc(=O)oc2c1`, 7.73%.

For the compound `O=C1CCCc2c1nc(-c1ccccc1F)n2O`, the “hERG current change (%, negative = inhibition) at 1uM” value worked out at 8.8%. Under `CC(=O)N/C(=C\c1ccccc1)C(=O)OCC(=O)Nc1cc(S(=O)(=O)N(C)C)ccc1C` stands 11.8%. Under `CC1=C(C(=O)Nc2ccccc2)C(c2ccc(C)o2)n2c(s/c(=C/c3ccccc3)c2=O)=N1` (stereo not drawn) stands 12.4%.
